# Source: the supplement of paper PMC10369915
# The list shows a part of the results. Rule as the data show it: active = 3.2 or more and inactive = the rest. Only a few entries rise above the background.
# How the values were obtained:
# Assay in all cases: enrichment score (SH2-bound / input frequency) (ratio); bacterial display of known human phosphotyrosine sites (pTyr-Var adds point mutants) read by sequencing; higher = stronger binding; tyrosines were phosphorylated by kinases first
# Details in all cases: peptide library: Human pTyr
# [1] = target: SHP2 C-SH2 domain E139D
# [2] = target: SHP2 C-SH2 domain wild-type
# [3] = target: SHP2 N-SH2 domain L43F
# [4] = target: SHP2 N-SH2 domain T42A
# [5] = target: SHP2 N-SH2 domain T52S
# [6] = target: SHP2 N-SH2 domain wild-type
# 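Also: displayed peptides selected on beads carrying the immobilized SH2 domain, with library peptides lacking any tyrosine serving as negative controls.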
Binder,enrichment score [1],enrichment score [2],enrichment score [3],enrichment score [4],enrichment score [5],enrichment score [6]
IREFLDQYDAPLGGG [SOCS3_HUMAN_221],inactive: 0.89,inactive: 0.464,inactive: 0.76,inactive: 0.656,inactive: 0.709,inactive: 0.501
SFFSSPPYFEDGGGG [SLAP1_HUMAN_273],inactive: 0.986,inactive: 0.73,inactive: 0.688,inactive: 0.629,inactive: 1.05,inactive: 0.796
SETTKGAYCLSVSDF [SRC_HUMAN_187],inactive: 1.3,inactive: 1.19,inactive: 0.96,inactive: 1.07,inactive: 1.14,inactive: 1.22
VSRGLFAYAANEKSK [SKAP1_HUMAN_142_YA],inactive: 1.37,inactive: 1.17,inactive: 0.887,inactive: 1.18,inactive: 1.32,inactive: 1.4
MYRNEGFYADPYLYH [SKT_HUMAN_393],inactive: 0.928,inactive: 0.948,inactive: 0.917,inactive: 0.855,inactive: 1.07,inactive: 0.99
KDESRNVYAELNDVR [SKT_HUMAN_244_YA],inactive: 0.989,inactive: 0.817,inactive: 0.824,inactive: 0.819,inactive: 0.771,inactive: 0.856
GTEPEPVYSMEAADA [SRC8_HUMAN_446_YA],inactive: 1.02,inactive: 0.958,inactive: 1,inactive: 0.93,inactive: 1.1,inactive: 1.05
MKQVEELYHSLLELG [SPTAN1_HUMAN_1073],inactive: 0.609,inactive: 0.56,inactive: 0.693,inactive: 0.652,inactive: 0.686,inactive: 0.735
FTSTEPQYQPGENLG [SRC_HUMAN_530],inactive: 0.565,inactive: 0.555,inactive: 0.574,inactive: 0.487,inactive: 0.546,inactive: 0.468
TQILAASYELHKFYH [SPTB2_HUMAN_1805],inactive: 1.73,inactive: 2.04,inactive: 1.92,inactive: 1.62,inactive: 2.01,inactive: 2.74
MGDSDDEYDRRRRDK [SRRT_HUMAN_8],inactive: 0.921,inactive: 0.69,inactive: 0.764,inactive: 0.866,inactive: 0.878,inactive: 0.87
SVEEVPLYGNLHYLQ [SIT1_HUMAN_90],inactive: 0.857,inactive: 0.793,inactive: 0.661,inactive: 0.685,inactive: 0.773,inactive: 0.845
SEEGAQDYEPEAGGG [SNCA_HUMAN_136_YA],inactive: 1.49,inactive: 0.958,inactive: 1.46,inactive: 1.01,inactive: 1.16,inactive: 0.979
AFGISDSYVDGSSFD [SRRM2_HUMAN_145],inactive: 0.701,inactive: 0.49,inactive: 0.576,inactive: 0.599,inactive: 0.492,inactive: 0.47
GTEPEPVYSMEAADY [SRC8_HUMAN_446],inactive: 0.969,inactive: 0.88,inactive: 0.878,inactive: 0.837,inactive: 0.749,inactive: 0.806
FHQLRIQYGTSKGKN [SMCA1_HUMAN_954],inactive: 2.45,inactive: 2.16,inactive: 1.87,inactive: 2.19,inactive: 2.18,inactive: 2.74
VVSEEPIYIVTEYMS [SRC_HUMAN_338],inactive: 1.5,inactive: 1.33,inactive: 1.34,inactive: 0.988,inactive: 1.39,inactive: 1.42
ASFPDQAYANSQPAA [SIT1_HUMAN_188],inactive: 0.62,inactive: 0.538,inactive: 0.565,inactive: 0.643,inactive: 0.799,inactive: 0.557

Binder,enrichment score [1],enrichment score [2],enrichment score [3],enrichment score [4],enrichment score [5],enrichment score [6]
AYATEAVYESAEAPG [SRC8_HUMAN_470],inactive: 0.823,inactive: 0.522,inactive: 0.892,inactive: 0.604,inactive: 0.635,inactive: 0.74
EDSTYDEYENDLGIT [SRC8_HUMAN_489],inactive: 1.17,inactive: 1.27,inactive: 1.08,inactive: 1.37,inactive: 1.1,inactive: 1.35
VPGQQGKYRGAKGSL [ATXN2L_HUMAN_744],inactive: 1.03,inactive: 1.12,inactive: 1,inactive: 0.911,inactive: 0.937,inactive: 1.12
AAATEAVYESAEAPG [SRC8_HUMAN_470_YA],inactive: 0.858,inactive: 0.772,inactive: 0.981,inactive: 0.675,inactive: 0.844,inactive: 1.05
AIRNTNEYTEGPTVV [SPRY2_HUMAN_55],inactive: 0.621,inactive: 0.658,inactive: 0.805,inactive: 0.621,inactive: 0.71,inactive: 0.754
EKEEEDIYEVLPDEE [SKAP1_HUMAN_271],inactive: 1.12,inactive: 1.13,inactive: 0.85,inactive: 1.19,inactive: 1.09,inactive: 1.31
YSMEAADYREASSQQ [SRC8_HUMAN_453],inactive: 0.759,inactive: 0.631,inactive: 0.57,inactive: 0.625,inactive: 0.628,inactive: 0.833
AVQQQEVYGMMPRDE [SPTN1_HUMAN_1176],inactive: 0.696,inactive: 0.586,inactive: 0.579,inactive: 0.547,inactive: 0.961,inactive: 0.648
FRWFKDHYQDPVPGI [SPT6H_HUMAN_1515],inactive: 1.92,inactive: 1.79,inactive: 1.75,inactive: 1.27,inactive: 1.55,inactive: 2.12
AMLDSGIYPPGSPGK [SNAPN_HUMAN_129],inactive: 0.475,inactive: 0.542,inactive: 0.538,inactive: 0.5,inactive: 0.589,inactive: 0.497
VSRGLFYYYANEKSK [SKAP1_HUMAN_142],inactive: 1.74,inactive: 2.34,inactive: 1.75,inactive: 2.13,inactive: 1.93,inactive: 2.74
WMTGAEDYRHAPVRG [SPRE2_HUMAN_231_YA],inactive: 0.73,inactive: 0.615,inactive: 0.752,inactive: 0.747,inactive: 0.876,inactive: 0.733
SAPDKRIYQFTAASP [SKAP2_HUMAN_197],inactive: 1.01,inactive: 0.785,inactive: 0.818,inactive: 0.856,inactive: 0.882,inactive: 1.01
AASKKTIYTYIMASR [SLAF5_HUMAN_279],inactive: 1.89,active: 3.94,inactive: 1.73,active: 3.26,inactive: 2.83,inactive: 2.74
CRTSGSVYITLKKAD [SRP14_HUMAN_27_YA],inactive: 1.84,inactive: 1.68,inactive: 1.21,inactive: 1.41,inactive: 1.51,inactive: 1.95
KTEEAIIYSAGFATI [SPTC1_HUMAN_164_YA],inactive: 1.51,inactive: 1.32,inactive: 1.32,inactive: 1.02,inactive: 1.76,inactive: 1.69
SGPEPELYASVCAQT [SIT1_HUMAN_169],inactive: 1.96,inactive: 1.14,inactive: 1.71,inactive: 1.19,inactive: 1.61,inactive: 1.23
ASMEAADYREASSQQ [SRC8_HUMAN_453_YA],inactive: 0.792,inactive: 0.484,inactive: 0.566,inactive: 0.586,inactive: 0.74,inactive: 0.818
